# Experimental data: PubChem BioAssay (NCI)
#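 Five compound concentrations were applied to cells in 96-well plates for 48 hours; endpoints were derived by simple linear interpolation of the resulting dose-response curve. GI50 marks 50% less growth. The concentration for full growth arrest is given as TGI.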
# System: NCI-H322M lung
# Assay: DTP human tumour cell line panel, 48 h
compound,measurement,value
CC[C@]12C=CCN3CC[C@]4(C(=C(C(=O)OC)C1)Nc1cc5c(cc14)[C@@H]1[C@H](O5)[C@@H](O)[C@@]4(CC)CC(C(=O)OC)=C5Nc6cc(O)ccc6[C@@]56CCN1C46)C32 (some centres not stated),GI50,197 nM
same,TGI,2790 nM
